Experimental data from the supplement of paper PMC12217912.
The other results are listed elsewhere or left out. The full chains were built here from the parent and the listed change. Values near 0.05 are background.

B1: TEV protease; numbered along this chain (parent)
chain: MGESLFKGPRDYNPISSSICHLTNESDGHTTSLYGIGFGPFIITNKHLFRRNNGTLVVQSLHGVFKVKDTTTLQQHLVDGRDMIIIRMPKDFPPFPQKLKFREPQREERICLVTTNFQTKSMSSMVSDTSCTFPSGDGIFWKHWIQTKDGQCGSPLVSTRDGFIVGIHSASNFTNTNNYFTSVPKNFMELLTNQEAQQWVSGWRLNADSVLWGGHKVFMVKPEEPFQPVKEATQL

Variants of: B1
Test: raw area under fraction-flipped curve 0-4 h after induction (AUC4h, not background-subtracted), DNA-recorder readout of cleavage of the substrate (dimensionless); higher = more cleavage of the substrate by the protease variant
Conditions: temperature: 34 °C; time window: 0-4 h after rhamnose induction
Description: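 In vivo DNA recorder in E. coli TOP10(DE3) ΔrhaA at 34 °C. Each TEVp single-site mutant (parent TEVp 0) is paired with a single-site variant of the 7-mer TEVs (canonical ENLYFQ|S). The substrate sits between flexible linkers in a Bxb1-sfGFP-TEVs-SsrA fusion, so cleavage stabilises Bxb1 and speeds flipping of a recombination array, read by NGS. The value is the raw area under the fraction-flipped curve over 0-4 h after rhamnose induction (AUC4h), with ≥20 reads per time point. It is not background-subtracted; inactive controls average about 0.047.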
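Further: Bxb1 expression induced with 0.2% (w/v) L-rhamnose at OD600 near 0.5, cultures sampled hourly, flipped fraction per protease–substrate barcode pair counted by paired-end Illumina sequencing.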

| Variant | area with substrate ENLYFQA | area with substrate ENLYFQC | area with substrate ENLYFQD | area with substrate ENLYFQF | area with substrate ENLYFQG | area with substrate ENLYFQI | area with substrate ENLYFQK | area with substrate ENLYFQL | area with substrate ENLYFQM | area with substrate ENLYFQN | area with substrate ENLYFQQ | area with substrate ENLYFQR | area with substrate ENLYFQS | area with substrate ENLYFQT | area with substrate ENLYFQV | area with substrate ENLYFQW | area with substrate ENLYFQH | area with substrate ENLYFQP | area with substrate ENLYFQY | area with substrate ENLYFQE |
| --- | --- | --- | --- | --- | --- | --- | --- | --- | --- | --- | --- | --- | --- | --- | --- | --- | --- | --- | --- | --- |
| T192D | 0.107 | 0.117 | 0.0709 | 0.0548 | 0.0896 | 0.115 | 0.058 | 0.0571 | 0.103 | 0.0669 | 0.0619 | 0.0519 | 0.0994 | 0.0447 | 0.052 | 0.0572 | – | – | – | – |
| T192P | 0.0617 | 0.0602 | – | – | – | 0.0826 | 0.0613 | 0.0609 | 0.055 | 0.0534 | 0.047 | 0.0557 | 0.0627 | 0.063 | – | 0.0565 | 0.0762 | 0.063 | 0.0646 | – |
| N193P | 0.0592 | 0.0955 | – | – | – | – | 0.058 | 0.0609 | 0.0448 | 0.0531 | – | 0.0536 | 0.0714 | 0.0589 | 0.0532 | 0.0209 | 0.0353 | 0.0588 | 0.0551 | 0.0691 |
| E195D | 0.0738 | – | 0.0572 | 0.0467 | – | 0.0616 | 0.0955 | – | 0.0863 | 0.0502 | – | 0.0534 | 0.101 | 0.068 | – | 0.0571 | – | 0.0541 | – | – |
| A196N | 0.102 | 0.105 | 0.0685 | – | 0.0846 | – | – | 0.0567 | – | 0.0732 | – | 0.0494 | 0.101 | 0.0653 | 0.0668 | 0.062 | – | 0.0612 | 0.083 | – |
| Q198V | 0.103 | – | – | – | 0.109 | 0.0561 | 0.0618 | 0.0736 | – | 0.0725 | – | – | 0.108 | 0.0744 | – | 0.0672 | 0.0761 | – | 0.0792 | – |
| Q198Y | 0.0934 | 0.102 | 0.0711 | – | 0.0764 | 0.0672 | 0.0553 | 0.0683 | 0.0799 | 0.0684 | – | 0.0558 | 0.091 | 0.0608 | – | 0.0615 | 0.0648 | 0.0614 | 0.0808 | – |
| S201P | 0.0626 | 0.0672 | 0.0624 | – | 0.0582 | – | 0.0691 | 0.0387 | – | 0.0456 | 0.0632 | 0.0379 | 0.0669 | – | – | 0.0537 | 0.0693 | – | 0.0519 | – |
| G202S | 0.0772 | 0.0881 | – | 0.0652 | 0.0722 | 0.0814 | 0.0631 | – | 0.0635 | – | – | 0.0529 | 0.0776 | 0.0667 | 0.0494 | 0.0648 | – | – | 0.0617 | – |
| R204E | 0.124 | 0.133 | 0.0735 | – | – | 0.0613 | 0.0731 | 0.0581 | 0.0873 | 0.1 | 0.0781 | – | 0.119 | – | 0.0648 | 0.0524 | – | 0.0834 | 0.0896 | – |
| S209C | 0.104 | 0.108 | 0.0729 | – | 0.0577 | 0.0719 | 0.0208 | 0.069 | 0.0766 | 0.0819 | 0.0832 | 0.0693 | 0.0983 | 0.0104 | – | 0.0612 | – | – | – | 0.0712 |
| V210G | 0.0897 | 0.11 | – | 0.0623 | – | – | 0.0686 | 0.0498 | 0.0467 | – | – | 0.0722 | 0.0934 | 0.0788 | 0.0484 | 0.0466 | 0.0677 | 0.0735 | – | – |
| V210K | 0.0721 | 0.0804 | 0.0562 | 0.0524 | 0.0568 | 0.0744 | 0.0487 | 0.062 | 0.0682 | 0.0608 | – | 0.0692 | 0.0769 | 0.0495 | 0.0869 | 0.0577 | 0.106 | 0.0567 | 0.0543 | – |
| W212M | 0.121 | 0.139 | – | – | 0.113 | 0.0704 | 0.0592 | 0.0683 | 0.113 | 0.101 | 0.0841 | 0.061 | 0.126 | 0.0776 | – | 0.0668 | – | – | – | – |
| G213A | 0.0742 | 0.0917 | – | 0.0449 | 0.0731 | 0.0532 | 0.0576 | 0.0623 | 0.0653 | 0.0666 | 0.0389 | 0.0628 | 0.0815 | 0.0459 | 0.0587 | 0.0578 | 0.0588 | 0.0679 | 0.0574 | 0.0355 |
| G213K | 0.0634 | 0.0605 | 0.0557 | – | 0.0614 | 0.0614 | 0.0508 | 0.0597 | 0.0612 | 0.0563 | – | 0.0686 | 0.0614 | 0.0564 | 0.0555 | 0.0643 | 0.051 | 0.062 | 0.0474 | – |
| G213Y | 0.0719 | 0.0598 | – | 0.0375 | 0.0825 | 0.0673 | 0.058 | – | 0.0533 | – | – | 0.0602 | 0.0639 | 0.0675 | 0.0673 | 0.071 | 0.0567 | – | 0.0552 | – |
| G214K | 0.0655 | 0.0943 | – | – | – | 0.0604 | 0.0723 | 0.0498 | – | 0.0603 | 0.0699 | 0.0687 | 0.0855 | 0.0617 | – | – | – | 0.0451 | 0.077 | – |
| G214M | 0.065 | 0.0898 | – | – | 0.0436 | 0.0397 | – | 0.0562 | 0.0782 | 0.0621 | – | 0.0719 | 0.08 | 0.0529 | – | 0.0575 | – | 0.0548 | 0.06 | – |
| H215G | 0.058 | 0.0448 | – | 0.048 | 0.0876 | 0.0585 | 0.0584 | 0.0618 | 0.0754 | 0.0519 | 0.0785 | 0.0637 | 0.0611 | 0.0511 | 0.0599 | 0.0702 | 0.0659 | 0.0646 | – | – |
| K216L | 0.0769 | – | – | 0.0784 | 0.0823 | 0.0435 | 0.0667 | – | – | – | – | 0.0647 | 0.0874 | 0.053 | 0.035 | – | 0.0685 | – | – | – |
| V217N | 0.0624 | – | 0.0529 | 0.0646 | 0.0457 | – | – | 0.0603 | 0.0747 | 0.0627 | – | 0.0588 | 0.0616 | 0.0626 | – | 0.0499 | 0.0555 | 0.0475 | – | – |
| F218S | 0.122 | 0.116 | 0.0511 | – | 0.0891 | 0.057 | – | – | 0.0839 | 0.0947 | – | 0.0607 | 0.104 | 0.0627 | – | 0.0612 | 0.0807 | 0.0491 | – | – |
| M219Q | 0.0707 | 0.0981 | 0.0657 | 0.0612 | 0.0887 | 0.0699 | 0.0525 | 0.0545 | 0.0643 | 0.0645 | 0.0605 | 0.0665 | 0.0944 | 0.0721 | 0.0548 | 0.0971 | 0.0674 | 0.0602 | 0.0478 | – |
